From PubChem BioAssay AID485360 (National Center for Advancing Translational Sciences (NCATS), 2010)
Screen size: about 230,000 compounds; about 1,500 (0.65%) were called active. Inconclusive results, whose numbers are uncertain, are shown with a selection of clear calls. Calls come from the whole dose curve; as a rule, active = well fitted inhibition curve with a large enough effect; inconclusive = small, poorly fitted or top-dose-only effect; inactive = no such curve, though single readings can be large or run the other way. A potency beside an inconclusive call is a rough fit, not a confirmed value.

Molecular target: Lethal(3)malignant brain tumor-like protein 1 (Homo sapiens) (UniProt Q9Y468)
Sequence of UniProt Q9Y468 (Q9Y468 whole entry, looked up): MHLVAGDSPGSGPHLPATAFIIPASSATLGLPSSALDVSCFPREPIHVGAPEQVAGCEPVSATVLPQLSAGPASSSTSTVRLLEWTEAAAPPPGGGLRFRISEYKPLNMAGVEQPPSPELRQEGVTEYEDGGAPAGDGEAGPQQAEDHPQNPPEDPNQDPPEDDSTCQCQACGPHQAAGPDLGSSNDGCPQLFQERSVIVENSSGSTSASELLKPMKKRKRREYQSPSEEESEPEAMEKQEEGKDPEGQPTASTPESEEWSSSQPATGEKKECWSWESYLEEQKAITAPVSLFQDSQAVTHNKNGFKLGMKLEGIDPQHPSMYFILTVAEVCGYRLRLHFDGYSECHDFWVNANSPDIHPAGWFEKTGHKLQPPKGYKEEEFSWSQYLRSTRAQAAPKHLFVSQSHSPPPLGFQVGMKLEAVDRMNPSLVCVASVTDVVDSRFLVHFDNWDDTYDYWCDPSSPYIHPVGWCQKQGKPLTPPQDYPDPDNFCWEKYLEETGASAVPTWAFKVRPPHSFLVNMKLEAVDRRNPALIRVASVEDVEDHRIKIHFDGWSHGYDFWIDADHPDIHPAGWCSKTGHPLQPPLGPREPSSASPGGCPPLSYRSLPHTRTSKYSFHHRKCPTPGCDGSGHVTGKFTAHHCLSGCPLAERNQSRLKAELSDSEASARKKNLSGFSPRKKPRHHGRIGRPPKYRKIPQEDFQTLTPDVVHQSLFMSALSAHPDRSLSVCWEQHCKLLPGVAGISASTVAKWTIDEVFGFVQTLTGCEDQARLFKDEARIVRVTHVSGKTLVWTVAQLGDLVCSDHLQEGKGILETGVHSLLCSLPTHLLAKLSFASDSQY
Experiment: qHTS Assay for the Inhibitors of L3MBTL1; note: nearly all actives have a fitted effect of over 60% in size
Conditions: AlphaScreen L3MBTL1–H3K9me1 peptide binding; series mostly up to 57.1 µM
Method in brief: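 AlphaScreen proximity signal between nickel-chelate acceptor and streptavidin donor beads (final 10 ug/mL) reports binding of 50 nM L3MBTL1 to 75 nM biotin-H3 K9me1 peptide; complex incubated with compounds 30 min at room temperature; cefsulodin titration as control.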
Potency is the fitted concentration of half-maximal effect; tags give direction and shape of the fitted curve.

SMILES | Potency
Cc1cc(=O)[nH]c2c1c(C)nn2-c1ccccc1 | inactive
COc1ccc(/C=N/Nc2nncn2N)cc1Br | inconclusive: 39.8 µM [inhibitor, single point]
CCNc1nc(NCC)nc(N(C)N)n1 | inconclusive: 35.5 µM [inhibitor, single point]
CCCCn1c(NS(=O)(=O)c2ccc(C)cc2)c(S(=O)(=O)c2ccccc2)c2nc3ccccc3nc21 | active: 5.01 µM
N#CCCN1CCN(C(=S)c2ccc(-c3cc(Cl)ccc3Cl)o2)CC1 | inactive
COc1ccc(NC(=O)CN(C)C(=O)c2cccc(Oc3ccccc3)c2)cc1 | inactive
CCC(CC)C(=O)c1c[nH]c(C(=O)N2CCN(c3ccccc3)CC2)c1 | inactive
CC(C)Cc1ccc(C(C)NC(=O)Cc2ccc(S(=O)(=O)N3CCOCC3)s2)cc1 (stereo unspecified) | inconclusive: 0.708 µM [inhibitor, single point]
CCNc1nc(NCC)n2c(SCC(=O)Nc3ccccc3C(F)(F)F)nnc2n1 | inconclusive: 39.8 µM [inhibitor, single point]
O=C(CSc1cn(CC(=O)N2CCCCC2)c2ccccc12)NCC1CCCO1 (stereo unspecified) | inconclusive: 39.8 µM [inhibitor, single point]
Cc1ccc(C)c(S(=O)(=O)N=Nc2c(O)[nH]c3ccccc23)c1 | inactive
Cc1ccc(NCc2nc3ccccc3n2CCOc2ccccc2)cc1 | inconclusive: 39.8 µM [inhibitor, single point]
O=C(/C=C/c1ccc(-c2ccccc2[N+](=O)[O-])o1)c1ccco1 | inconclusive: 14.1 µM [inhibitor, partial curve]
COc1cc(OC)c(OC)cc1CN1CCCC(C(=O)c2sccc2C)C1 (stereo unspecified) | inactive
CC[C@]12c3[nH]c4cc(-c5ccco5)ccc4c3CCN1C(=O)[C@@H](CC(=O)NCc1ccco1)C[C@@H]2C(=O)N1CCN(C(=O)C2CC2)CC1 | inconclusive: 35.5 µM [inhibitor, single point]
NC(=O)C1CCN(C(=O)c2ccc(OCC(=O)Nc3cccc(C(F)(F)F)c3)cc2)CC1 | inconclusive: 0.398 µM [inhibitor, partial curve, poor fit]
CN(C)c1ccc(NC(=O)COC(=O)Cn2nnc3ccccc32)cc1 | inconclusive: 39.8 µM [inhibitor, single point]
Cc1ccc(N=C2NC(=O)/C(=C/C=C/c3ccco3)S2)cc1C | active: 22.4 µM
Cc1ccc(NC(=O)CN(C)C(=O)COc2cccc3cccnc23)cc1 | inconclusive: 35.5 µM [inhibitor, partial curve]
O=C(CNc1ccc2c(c1)OCO2)N/N=C\c1ccccc1Cl | inactive
CC(C)c1ccc(OCC(=O)Nc2cccc3c2CCCC3)cc1 | inconclusive: 44.7 µM [inhibitor, partial curve, poor fit]
Cc1ccc2cc(C#N)c(NCCCNC(=O)C3CCCO3)nc2c1 (stereo unspecified) | inactive
COC(=O)C1=C(C)N(C)C(=O)NC1c1ccc(O)c(OC)c1 (stereo unspecified) | inconclusive: 3.55 µM [inhibitor, single point]
NC(=O)C1CCN(Cc2nc3cc(C(F)(F)F)ccc3c(=O)[nH]2)CC1 | inactive

SMILES | Potency
CCN(CC)CCN(C)C(=O)CCc1nnc(-c2ccc(C)s2)o1 | inconclusive: 8.91 µM [inhibitor, single point]
CCOC(=O)C1=C(C)OC(N)=C(C#N)C1c1cc2ccccc2nc1N1CCCCC1 (stereo unspecified) | inactive
Cc1nc(CS(=O)(=O)c2ccc(Cl)cc2)sc1C(=O)O | inactive
Oc1ccc(-c2csc(Nc3ccccn3)n2)cc1O | inconclusive: 17.8 µM [inhibitor, partial curve]
Cn1c(=O)[nH]c(=O)c2c1nc(N1CCOCC1)n2CC(=O)c1ccccc1 | inconclusive: 10 µM [inhibitor, partial curve]
CC(=O)Nc1ccc2c(COC(=O)CC3Sc4ccccc4NC3=O)cc(=O)oc2c1 (stereo unspecified) | active: 25.1 µM
O=C(CSc1cccc2cccnc12)N1CCCC1 | inconclusive: 39.8 µM [inhibitor, single point]
CCOC(=O)C1(CCOc2ccccc2)CCN(Cc2ccc3nonc3c2)CC1 | inconclusive: 8.91 µM [inhibitor, single point]
CCCCn1c(N)c(N(CC)C(=O)c2c(C)noc2C)c(=O)[nH]c1=O | inactive
Cc1c(Cl)cccc1NS(=O)(=O)c1ccc2c(c1)C1C=CCC1C(c1ccc(C(=O)O)cc1)N2 (stereo unspecified) | active: 7.94 µM
Cc1cccc(COCC(Cc2ccccc2)N2CCN(C(=O)c3ccc(Cl)c(Cl)c3)CCC2=O)c1 (stereo unspecified) | inactive
CC(=O)N1CCN(Cc2ccc(Br)s2)CC1 | inconclusive: 3.98 µM [inhibitor, single point]
C/C(=N\NC(=O)c1ccc(Cl)cc1)c1ccccn1 | inconclusive: 39.8 µM [inhibitor, single point]
COc1cc(OC)cc(C(=O)NCC(=O)OCC(=O)NCc2ccco2)c1 | inconclusive: 39.8 µM [inhibitor, single point]
O=C(O/N=C\c1ccc(N2CCCCC2)c([N+](=O)[O-])c1)c1ccc(Cl)cc1Cl | inactive
O=C(N/N=C/c1cc2ccccc2nc1Cl)[C@H]1C[C@@H]1c1ccccc1 | inconclusive: 7.08 µM [inhibitor, single point]
CSc1nc(SCCN(C)C)c2c3c(sc2n1)COC(C)(C)C3 | inconclusive: 6.31 µM [inhibitor, single point]
OC[C@H]1O[C@H](OC[C@H]2O[C@H](OC[C@H]3O[C@H](O[C@]4(CO)O[C@H](CO)[C@@H](O)[C@@H]4O)[C@H](O)[C@@H](O)[C@@H]3O)[C@H](O)[C@@H](O)[C@H]2O)[C@H](O)[C@@H](O)[C@H]1O | inactive
COc1ccc(-c2cc(C(=O)NN)n(-c3ccccc3)n2)cc1 | inactive
Cc1ccc2nc(/C(C#N)=C\c3ccc(N4CCOCC4)o3)[nH]c2c1 | inactive
Cc1ccc(C(=O)Nc2ccccc2C(=O)NCc2ccco2)cc1S(=O)(=O)N1CCCCC1 | inactive
NS(=O)(=O)c1ccc(NC=C2C(=O)OC3(CCCCC3)OC2=O)cc1 | inconclusive: 35.5 µM [inhibitor, partial curve, poor fit]
COc1ccc(CCC(C)NC2CCCCCCC2)cc1 (stereo unspecified) | inactive
COc1cc(N)c(C(=O)c2nccc3cc(OC)c(OC)cc23)cc1OC | inactive

SMILES | Potency
Cc1ccc(-n2c(C)cc(C)c(C#N)c2=O)cc1Cl | inconclusive: 0.794 µM [inhibitor, single point]
O=c1/c(=C/c2ccc(CNS(=O)(=O)c3ccccc3)o2)sc2n1CCN=2 | inconclusive: 28.2 µM [inhibitor, single point]
O=C(CSc1ccc2c(c1)OCCO2)N1CCN(c2ccccc2O)CC1 | inconclusive: 0.794 µM [inhibitor, single point]
O=C(N/N=C/c1ccc(-c2cccc(C(F)(F)F)c2)o1)c1ccccc1Br | inconclusive: 5.62 µM [inhibitor, single point]
COc1ccc(C2c3ccc4ccccc4c3Oc3ncn4nc(Cc5ccccc5)nc4c32)cc1OC (stereo unspecified) | inactive
CCC(C)NC(=O)C1CCN(C(=O)c2ccccc2)CC1 (stereo unspecified) | inactive
Cc1cnc(C(=O)OCC(=O)Nc2ccc(Cl)cc2Cl)cn1 | inconclusive: 7.08 µM [inhibitor, partial curve]
Cc1cccc(NC(=O)NCc2ccc3c(c2)cc(C)n3C)c1 | inconclusive: 20 µM [inhibitor, single point]
COc1ccc2nc(SC)c(C#N)cc2c1 | inconclusive: 39.8 µM [inhibitor, single point]
COc1ccc(C2C(C#N)=C(N)Oc3n[nH]c(C)c32)cc1Cn1nc(C)c([N+](=O)[O-])c1C (stereo unspecified) | inconclusive: 5.62 µM [inhibitor, single point]
CCOC(=O)c1ccc2c(c1)n(CC)c(/C=C/Nc1ccccc1)[n+]2CC | inactive
CCOc1ccc(NC(=O)COc2ccc(C(=O)NCc3cccc(OC)c3)cc2OC)cc1 | inconclusive: 0.794 µM [inhibitor, single point]
O=C(CSc1ccc(Cl)cc1)Nc1ccccc1Oc1ccccc1 | inconclusive: 0.794 µM [inhibitor, single point]
CCN1CCN(c2ccc(S(=O)(=O)N3CCOCC3)cc2NC(=O)c2ccccc2OC(F)F)CC1 | inconclusive: 0.708 µM [inhibitor, full curve, poor fit]
O=C(Cn1c(-c2ccccc2)noc1=O)Nc1ccc(N2CCCCCC2)cc1 | inconclusive: 28.2 µM [inhibitor, partial curve]
Nc1ccc(N2CCCCC2)cc1N1CCCCC1 | inconclusive: 28.2 µM [inhibitor, single point]
O=C(O)Cc1ccc(C(=O)CSc2ccccc2)s1 | inconclusive: 39.8 µM [inhibitor, single point]
O=C(O)C1CCN(C(=O)CCc2ccccc2)CC1 | inactive
Cc1ccc(C(=O)O)cc1NC(=O)c1cccs1 | inconclusive: 4.47 µM [inhibitor, single point]
CN(C)C(=O)c1cc(C(=O)c2ccc(C(F)(F)F)cc2F)c[nH]1 | inconclusive: 39.8 µM [inhibitor, single point]
Cc1cs/c(=N\N=C\c2ccccc2)n1Cc1ccco1 | inconclusive: 25.1 µM [inhibitor, partial curve]
CC(OC(=O)Cc1c[nH]c2ccccc12)C(=O)Nc1ccc(S(N)(=O)=O)cc1 (stereo unspecified) | inconclusive: 35.5 µM [inhibitor, single point]
Cc1cccc2cc(C(c3nnnn3C(C)(C)C)N(Cc3ccco3)CC3CCCO3)c(=O)[nH]c12 (stereo unspecified) | inconclusive: 39.8 µM [inhibitor, single point]
